Reference: PubChem BioAssay AID488969 (Vanderbilt High Throughput Screening Facility, 2010)
Over roughly 110,000 compounds, “z-score” has its median near -0.1; the highest 2% begin near 2. The list shows a part of the results. Active and inactive are the calls of the source.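 The calls were made as follows: active = z-score in the third read window above 3 or below -3; inactive = the rest.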

Target: Metabotropic glutamate receptor 8 (Rattus norvegicus) (UniProt P70579)
Assay: mGluR8 Gi/Go-coupled signaling modulation – cell-based, rat, thallium flux, HTS, primary screen (AID 488969)
Conditions: HEK293 rat mGluR8, GIRK (G protein-gated inwardly rectifying potassium channel) thallium flux, FluoZin2; at 10 µM; stronger effect = higher value; submaximal glutamate (EC20) added with thallium

Chain of UniProt P70579 (P70579 whole entry, looked up): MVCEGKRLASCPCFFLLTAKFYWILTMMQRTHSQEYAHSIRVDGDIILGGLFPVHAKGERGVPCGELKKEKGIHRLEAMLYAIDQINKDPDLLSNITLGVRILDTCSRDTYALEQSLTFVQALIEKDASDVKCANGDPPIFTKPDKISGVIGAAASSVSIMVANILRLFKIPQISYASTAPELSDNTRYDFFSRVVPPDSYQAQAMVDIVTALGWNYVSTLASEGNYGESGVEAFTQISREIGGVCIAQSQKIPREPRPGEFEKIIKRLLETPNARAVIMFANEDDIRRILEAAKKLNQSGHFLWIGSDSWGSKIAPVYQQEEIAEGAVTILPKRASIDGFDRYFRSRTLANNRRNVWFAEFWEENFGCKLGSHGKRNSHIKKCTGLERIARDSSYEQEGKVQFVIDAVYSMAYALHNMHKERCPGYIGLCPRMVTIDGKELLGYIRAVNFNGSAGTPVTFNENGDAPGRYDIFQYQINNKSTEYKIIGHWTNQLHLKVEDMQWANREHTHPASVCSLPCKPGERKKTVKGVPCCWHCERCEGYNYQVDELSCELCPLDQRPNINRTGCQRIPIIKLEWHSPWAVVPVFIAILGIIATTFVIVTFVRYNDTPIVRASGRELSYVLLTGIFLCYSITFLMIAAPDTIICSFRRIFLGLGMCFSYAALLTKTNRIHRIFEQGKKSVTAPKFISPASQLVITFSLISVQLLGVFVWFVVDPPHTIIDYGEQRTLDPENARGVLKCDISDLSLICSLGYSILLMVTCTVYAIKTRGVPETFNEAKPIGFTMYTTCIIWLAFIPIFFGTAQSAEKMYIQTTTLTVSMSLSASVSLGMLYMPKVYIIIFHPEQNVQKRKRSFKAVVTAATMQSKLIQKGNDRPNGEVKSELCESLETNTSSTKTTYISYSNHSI

| Structure (SMILES) | z-score |
| --- | --- |
| Cc1cc2n(n1)C(c1ccsc1)Nc1ccccc1-2 (configuration not stated) | 0.0208 |
| CN(C)c1nc(Cl)cc(N2CCOCC2)n1 | 0.432 |
| CCCCOC(=O)CNc1n[nH]c(=S)[nH]c1=O | 0.182 |
| CCc1cccc(C)c1NC(=O)CCCC(=O)O | 0.0858 |
| CC(=O)Nc1ccc(S(=O)(=O)Nc2cccc(N(C)S(C)(=O)=O)c2)cc1 | 0.326 |
| O=C(Nc1ccc(N2CCN(C(=O)c3ccco3)CC2)cc1)c1cccs1 | -1.1 |
| COc1ccc(-c2ccc(CCC(=O)O)n2NC(=O)c2cccs2)cc1 | 0.347 |
| O=C(COC(=O)c1ccccn1)NCCCc1ccccc1 | 0.106 |
| Cc1ccc(NC(=O)Nc2ccc3oc(C)nc3c2)cc1 | -0.385 |
| CC(C)(C)OC(=O)N1CCC(C(=O)O)CC1 | -0.427 |
| CC(C)CCNC(=O)c1sc2ccc(S(=O)(=O)N3CCCCC3)cc2c1N | -0.0861 |
| O=C(/C=C/c1ccc(Cl)c([N+](=O)[O-])c1)Nc1ccc(NC(=O)c2ccco2)cc1 | 0.571 |
| CNC(=O)c1ccc(-c2ccc(OC)cc2)s1 | -0.0761 |
| CCn1c(=NC(=O)CN2C(=O)CCC2=O)sc2c(C)cc(C)cc21 | -0.611 |
| CCOC(=O)/C(C#N)=C1/C=C(C)NC(c2ccccc2O)=N1 | -1.53 |
| Cn1ccnc1SCC(=O)Nc1ccc(Oc2ccccc2)cc1 | 2.29 |
| CCOC(=O)C1=C(O)/C(=C/c2ccc(C)o2)SC1=NC(=O)c1ccccc1C | 0.0866 |
| Cc1cc(C)c(C#N)c(SCC(=O)N(C)C2CCCCC2)n1 | -0.992 |
| CCN1CCN(C(=O)CN(C)S(=O)(=O)c2ccc(OC)cc2)CC1 | 0.888 |
| CCOC(=O)c1c(C)oc2c1c(C(c1ccccc1)N1CCOCC1)c(O)c1ccccc12 (configuration not stated) | -0.228 |
| Cn1c2ccccc2c2cc(C(=O)O)ccc21 | 0.933 |
| Nc1c(-c2ccccc2)cnn1-c1cccc([N+](=O)[O-])c1 | -0.00911 |
| O=C(CNS(=O)(=O)c1ccccc1)NCC(=O)OCc1ccccc1F | -0.319 |

| Structure (SMILES) | z-score |
| --- | --- |
| Cc1ccc(C(=O)N(c2ccccc2)C2CC(C)N(C(=O)c3ccco3)c3ccccc32)cc1 (configuration not stated) | -0.203 |
| O=C(Nn1c(-c2ccccc2)nc2ccccc2c1=O)c1cccs1 | 0.0399 |
| Nn1c(=O)c2ccccc2n2c(SCc3ccc(C(F)(F)F)cc3)nnc12 | -0.212 |
| O=C(CSc1nc(-c2cccs2)cc(C(F)(F)F)n1)NCc1ccco1 | -1.02 |
| CC(C)(C)C(=O)N1CCC[C@@]1(CO)C(=O)O | -0.231 |
| Cc1cccc(NC(=O)c2ccc(S(=O)(=O)N(C)C)cc2)c1 | 0.0927 |
| CCCCN(CC)CCCNC(=O)C1c2ccccc2C(=O)N(C)C1c1cn(C)c2ccccc12 (configuration not stated) | 1.95 |
| Cc1ccccc1OCC(=O)N/N=C/c1ccc2c(c1)OCCO2 | -0.285 |
| O=C1C(NS(=O)(=O)c2ccc(Cl)cc2)=C(N2CCCCC2)C(=O)c2ccccc21 | -0.0684 |
| CCSc1nnc(NC(=O)CSc2c(Cl)cccc2Cl)s1 | -0.191 |
| Cc1cc2nc(-c3ccc(SCc4ccccc4C#N)nc3)[nH]c2cc1C | -0.28 |
| Cc1ccc(-c2cc3nc(C)cc(NCc4ccco4)n3n2)cc1 | -0.267 |
| O=C(Nc1cccc2ccccc12)N1CC=C(c2ccccc2)CC1 | 0.499 |
| CCn1c(=O)cc(SCC(=O)NCc2ccc(C)cc2)c2ccccc21 | -0.0173 |
| O=C(COc1ccc(S(=O)(=O)NC2CCCCC2)cc1Cl)Nc1ccc2c(c1)OCO2 | 0.2 |
| Cc1nc(=O)cc(-c2ccccc2)n1-c1ccccc1 | 1.26 |
| CC[N+](C)(CC)CC(O)COCC1COc2ccccc2O1 (configuration not stated) | -0.0461 |
| CC(C)(C)NC(=O)C(=O)N/N=C/c1cccs1 | -0.177 |
| CCCc1nc(SCC(=O)Nc2cc(C)on2)c2c(=O)n(C)c(=O)n(C)c2n1 | 0.613 |
| Cc1cc(=O)oc2cc(OCC(=O)N3CCCC(C)C3)ccc12 (configuration not stated) | -1.18 |
| Cc1ccccc1NC1c2ccccc2C(=O)N1Cc1ccco1 (configuration not stated) | -0.438 |
| O=C1N(CC(=O)N2CCc3ccccc32)CCN1Cc1ccc(Cl)cc1 | 0.587 |
| COc1ccccc1/C=C/C=N/n1c(COc2ccccc2)n[nH]c1=S | 0.0265 |

| Structure (SMILES) | z-score |
| --- | --- |
| CCN1CCN(S(=O)(=O)c2ccc3[nH]c(=O)oc3c2)CC1 | 0.161 |
| CCOc1ccc2ccccc2c1C(=O)Nc1cc(=O)n(C)c(=O)n1C | 0.291 |
| COc1ccc2nc(NC(=O)c3cccnc3SC)sc2c1 | 0.203 |
| CCn1c(CSCc2ccc(C)cc2)nnc1SCC(=O)NCc1ccccc1 | -0.133 |
| Cc1cc(C)n(-c2nc3ccccc3nc2N2CCN(S(=O)(=O)c3ccc(F)c(C)c3)CC2)n1 | 0.635 |
| O=C(c1cccc(F)c1)N1CCN(c2cc(N3CCCCC3)c(F)cc2[N+](=O)[O-])CC1 | -0.121 |
| Cc1c(C(=O)Nc2ccc(-c3nnc4n3CCCCC4)cc2)oc2ccc(Br)cc12 | -0.49 |
| CC(CCc1ccccc1)NC(=O)c1ccc(NC(=O)c2ccc(Cl)cc2Cl)cc1 (configuration not stated) | -0.138 |
| CN1CCN(S(=O)(=O)c2cccc(C(=O)Nc3nc(-c4ccccc4)cs3)c2)CC1 | -0.528 |
| CC1CCCN(CCC(=O)Nc2ccc(Br)cc2)C1 (configuration not stated) | 0.477 |
| Oc1c(C(Nc2ccccn2)c2cccnc2)cc(Cl)c2cccnc12 (configuration not stated) | -0.646 |
| COc1ccc(-c2cc(=O)c3ccccc3n2C)cc1 | -0.189 |
| CCn1cnc2cc(NC(=O)c3ccco3)ccc21 | -0.829 |
| CS(=O)(=O)N(Cc1ccc(Cl)cc1)c1ccc(C(=O)NCCSc2ccccn2)cc1 | -0.163 |
| CCCNC(=O)CS(=O)Cc1nc(-c2ccccc2C)oc1C (configuration not stated) | -0.476 |
| CCOC(=O)CC(=O)CSc1[nH]c(=O)cc(C)c1C#N | 0.214 |
| COC(=O)Cn1nc(-c2ccccc2)c2cc(Cl)ccc21 | -0.209 |
| CC(C)NCc1cccc([N+](=O)[O-])c1 | -0.33 |
| C/C(=N\NC(=O)c1ccc([N+](=O)[O-])cc1)c1cc2ccccc2oc1=O | -0.125 |
| O=C(Oc1ccc(-n2cnnn2)cc1)c1ccco1 | 0.442 |
| Cc1cc(/C=N/NC(=O)CC2(C)OCCO2)c(C)n1-c1ccc(Cl)c(Cl)c1 | -3 |
| O=C1CN(C(=O)CSc2nnc(C3CC3)n2-c2ccccc2)c2ccccc2N1 | -0.0948 |
| O=C(NC1CCCCC1)c1ccc(N2CCCC2=O)cc1 | -0.692 |

| Structure (SMILES) | z-score |
| --- | --- |
| CSc1nnc(-c2sccc2OCc2ccc(C)cc2)n1C | -0.444 |
| CCC(=O)NNc1cccc(Cl)n1 | 0.283 |
| Fc1ccc(NC(=S)Nc2ccccc2OC(F)F)cc1Cl | active: 6.05 |
| Cc1nc2ccccc2c(-c2ccccc2)c1CC(=O)O | -0.184 |
| Nc1c(C(=O)Nc2ccccc2)sc2nc(-c3ccco3)ccc12 | -0.431 |
| COc1ccc(N2CCN(Cc3cc4c(cc3O)CCC4)CC2)cc1 | 0.133 |
| CO[C@@H]1O[C@@H]2COC(c3ccccc3)O[C@@H]2[C@@H](OC)[C@@H]1O (some centres not stated) | 0.672 |
| O=C(Cn1c(=O)oc2ccccc21)Nc1ccc(S(=O)(=O)N2CCCCC2)cc1 | -0.298 |
| COc1ccc(/C=C(/NC(=O)/C=C/c2ccccc2)C(=O)N2CCOCC2)cc1 | -0.18 |
| Cc1nccn1CC(=O)N/N=C/c1ccc(O)c(O)c1 | -0.0858 |
| COc1ccc2c(CC(=O)Nc3ccc(OC)c(NS(=O)(=O)c4ccc(F)cc4)c3)coc2c1 | -0.0702 |
| Cn1c(SCC(=O)NC2CC2)nnc1-c1cccc(NC(=O)c2ccccc2F)c1 | -0.214 |
| COc1ccc(C)cc1NC(=O)CN1CCN(S(=O)(=O)c2ccc(Br)cc2)CC1 | -0.133 |
| CON/C=C(\C=Nc1ccccc1)c1ncc(C(F)(F)F)cc1Cl | 0.07 |
| COc1ccc(C(=O)NNC(=S)NC(=O)c2cc(-c3ccccc3)nc3ccccc23)cc1 | 2.35 |
| CC(C)c1onc(C(=O)NCc2ccc(F)cc2)c1[N+](=O)[O-] | -0.167 |
| CCn1c(CNC(=O)c2ccco2)nnc1SCC(=O)Nc1cc(C)c(C)cc1Br | -0.121 |
| O=C(NC(=S)Nc1ccc(S(=O)(=O)N2CCCCCC2)cc1)c1cccs1 | -0.208 |
| Cc1cc(C)c(OCC(=O)N/N=C/c2ccco2)c(C)c1 | 0.641 |
| Clc1ncnc2scc(-c3ccc(Br)cc3)c12 | 0.0491 |
| O=C(COC(=O)c1ccc([N+](=O)[O-])s1)Nc1ccccc1 | -0.0827 |
| CC(Oc1ccccc1)c1ccnn1S(C)(=O)=O (configuration not stated) | -0.286 |
| COc1ccc(-c2noc(CSc3nnc(-c4ccccc4)n3C)n2)cc1 | -0.535 |

| Structure (SMILES) | z-score |
| --- | --- |
| N/C(=N\OC(=O)Oc1ccccc1)c1ccc(Cl)cc1 | 0.0329 |
| CCNc1nc(CN2CCOCC2)nc2sc3c(c12)CCC3 | -0.8 |
| O=C(c1sc2ccccc2c1Cl)N(Cc1ccccc1)C1CCS(=O)(=O)C1 (configuration not stated) | 1.16 |
| Cc1cn(C2OC(COC(=O)c3ccccc3)C(O)C2O)c(=O)[nH]c1=O (configuration not stated) | 0.18 |
| Cc1ccc(/C=N/NC(=O)c2ccc(Br)o2)s1 | 1.2 |
| Cc1ccc(NC(=O)c2ccc(NS(=O)(=O)c3c(C)noc3C)cc2)cc1C | 1.03 |
| O=C(CSc1nnc(-c2cccnc2)n1CCc1ccccc1)N1CCCCC1 | -0.33 |
| CC(C)C(c1nnnn1C1CCCCC1)N1CCc2ccccc21 (configuration not stated) | -0.312 |
| COc1ccc(Nc2cc(C(=O)NCCCN3CCN(C)CC3)c3ccccc3n2)cc1 | 0.531 |
| O=C(CCSCCC(=O)NCc1ccc(F)cc1)NCc1ccc(F)cc1 | -0.471 |
| O=S(=O)(NCc1ccccc1)c1cnc[nH]1 | 0.23 |
| CCN(CC)C(=O)COc1ccc(CC(=O)O)cc1OC | -0.345 |
| Oc1ccc(C(=S)N2CCCCC2)cc1Cl | -0.0261 |
| Cc1cc(C)n2nc(SCc3nnc(SCCCCl)o3)nc2n1 | -0.157 |
| Cc1ccsc1C(C(=O)NC1CCCCC1)N(C(=O)Cc1cccs1)C1CC1 (configuration not stated) | -0.616 |
| O=C(c1ccc2c(=O)n(Cc3ccco3)c(=S)[nH]c2c1)N1CCN(Cc2ccccc2)CC1 | 0.611 |
| C=CCN1C(=O)C(CC(=O)O)SC1=Nc1c(C)n(C)n(-c2ccccc2)c1=O (configuration not stated) | 0.0505 |
| Nc1nnc(Cc2ccc(Cl)cc2)s1 | 0.16 |
| CC(C)CC(=O)NCCCN1CCN(CCCNC(=O)CC(C)C)CC1 | -0.447 |
| N#CC1=C(SCC(=O)Nc2ccccc2)NC(=O)CC1c1ccc(O)cc1 (configuration not stated) | -0.397 |
